The supplement of paper PMC5919970
Counter-ions that a name gives are not always drawn. In all, about 2,000 compounds were measured (“fractional viability relative to vehicle”: median about 0.91, lowest 2% from about 0.045 on). This is one part of the list.

Tested on: TYKNU
Assay: fractional viability relative to vehicle; TYKNU is a high-grade serous ovarian cancer line; higher = less growth inhibition
Conditions: 72 h
How it was run: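 TYKNU control cells or lentiCRISPRv2 knockout derivatives were plated at 500 cells per well in duplicate into drug-stamped 384-well plates holding a ~2100-compound library at 2 or 10 μM. Culture was in RPMI 1640 with 10% FBS at 37 °C in 5% CO2, with 72 h of drug treatment. Viability was measured by Cell Titer Glo luminescence, and the averaged duplicate treatment wells were normalised to duplicate control wells at the same plate position.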

[1] = 2uM, genotype: DNM1L knockout (sgDNM1L #1)
[2] = 2uM, genotype: sgCTRLA1 (non-targeting control)
[3] = 10uM, genotype: DNM1L knockout (sgDNM1L #1)
[4] = 10uM, genotype: sgCTRLA1 (non-targeting control)

| Compound | fractional viability [1] | fractional viability [2] | fractional viability [3] | fractional viability [4] |
| --- | --- | --- | --- | --- |
| C=CCc1cc(OC)c(O)c(C(=O)NCCO)c1 [Alibendol] | 0.958 | 1.1 | 0.892 | 1.09 |
| CCOc1cn(-c2ccc(F)cc2C)nc1C(=O)Nc1ccc(Oc2ccnc3cc(OC)c(OC)cc23)c(F)c1 | 0.726 | 1.02 | 0.908 | 0.827 |
| C#C[C@]1(O)CC[C@H]2[C@@H]3CCC4=CC(=O)CC[C@@H]4[C@H]3CC[C@@]21C [Norethindrone] | 1.06 | 1.21 | 0.763 | 0.977 |
| NC(=O)c1cccc2[nH]c(-c3ccc(C4CCCN4)cc3F)nc12 (stereo unspecified) | 0.801 | 1.01 | 0.782 | 0.798 |
| COC(=O)C1=C(C)NC(C)=C(C(=O)OC)C1c1ccccc1[N+](=O)[O-] [Nifedipine] | 1 | 0.977 | 0.906 | 0.947 |
| CC(C)NC[C@H](O)COc1ccc(CCOCC2CC2)cc1 [Levobetaxolol HCl] | 1.13 | 1.21 | 0.846 | 1.27 |
| COc1cc2c(cc1O)CC[C@@H]1[C@@H]2CC[C@]2(C)[C@@H](O)CC[C@@H]12 [2-Methoxyestradiol (2-MeOE2)] | 0.293 | 0.325 | 0.228 | 0.318 |
| Nc1ccc(O)c(C(=O)O)c1 [Mesalamine] | 0.863 | 1.02 | 0.955 | 1.06 |
| COC(=O)N1CCN(Cc2cccc(NC(=O)Nc3ccc(C)nc3)c2F)CC1 | 0.991 | 1.18 | 0.966 | 1.15 |
| O=C(O)CSc1cc(NS(=O)(=O)c2ccc(Br)cc2)c2ccccc2c1O | 0.88 | 0.983 | 0.339 | 0.475 |
| N=c1ccn2c(n1)O[C@H]1[C@H](O)[C@@H](CO)O[C@H]12 [Cyclocytidine HCl] | 0.735 | 0.582 | 0.499 | 0.387 |
| CNC(=O)c1ccc2cc([C@@]3(O)CCn4cncc43)ccc2c1 [TAK-700 (Orteronel)] | 1.03 | 1.06 | 0.86 | 1.04 |
| CC(=O)Oc1cc(C(F)(F)F)ccc1C(=O)O [Triflusal] | 1.08 | 1.05 | 0.782 | 1.03 |
| Cc1cncc(CN2CCC(=C3c4ccc(Cl)cc4CCc4cccnc43)CC2)c1 [Rupatadine Fumarate] | 1.07 | 1.02 | 0.71 | 0.83 |
| CS(=O)(=O)c1ccc([C@@H](O)[C@@H](CO)NC(=O)C(Cl)Cl)cc1 [Thiamphenicol] | 1.09 | 1.01 | 0.686 | 0.415 |
| O=c1[nH]cc(F)c(=O)[nH]1 [Fluorouracil (5-Fluoracil, 5-FU)] | 0.896 | 1.1 | 0.78 | 0.781 |
| CNC(=O)c1ccccc1Oc1nc(Nc2cc(OC)c(OC)c(OC)c2)ncc1Br | 0.847 | 0.94 | 0.581 | 0.589 |
| C[C@]12C=CC(=O)C=C1CC[C@@H]1[C@@H]2[C@@H](O)C[C@@]2(C)[C@H]1CC[C@]2(O)C(=O)CO [Prednisolone] | 1.14 | 1.26 | 0.976 | 1.14 |
| O=c1ncn2nc(Sc3ccc(F)cc3F)ccc2c1-c1c(Cl)cccc1Cl | 1.06 | 0.994 | 0.88 | 0.938 |
| Cc1c(NC(=O)c2ccc(C(C)(C)C)cc2)cccc1-c1cn(C)c(=O)c(Nc2ccc(C(=O)N3CCOCC3)cc2)n1 | 1.01 | 1.09 | 0.65 | 0.821 |

| Compound | fractional viability [1] | fractional viability [2] | fractional viability [3] | fractional viability [4] |
| --- | --- | --- | --- | --- |
| O=C(O)Cc1ccccc1Nc1c(Cl)cccc1Cl [Diclofenac Sodium] | 1.12 | 0.938 | 0.917 | 0.967 |
| O=C(O)Cc1ccccc1Nc1c(Cl)cccc1Cl [Diclofenac Potassium] | 1.17 | 1.13 | 0.876 | 1.07 |
| O=C(O)Cc1ccccc1Nc1c(Cl)cccc1Cl [Diclofenac Diethylamine] | 1 | 1.03 | 0.893 | 1.14 |
| C[C@@H](c1ncncc1F)[C@](O)(Cn1cncn1)c1ccc(F)cc1F [Voriconazole] | 0.953 | 1.24 | 0.887 | 1.11 |
| C[C@@H]1CC(=O)NN=C1c1ccc(NN=C(C#N)C#N)cc1 [Levosimendan] | 0.946 | 1.02 | 0.676 | 0.71 |
| CN(C)CCCNC(=O)c1ccc(-c2cc(O)c3ncccc3c2)cc1 | 0.742 | 0.892 | 0.514 | 0.541 |
| NC1(c2ccc(-c3nc4ccn5c(=O)[nH]nc5c4cc3-c3ccccc3)cc2)CCC1 | 0.85 | 0.853 | 0.346 | 0.228 |
| Nc1cccc(S(=O)(=O)N2CCCN(S(=O)(=O)c3ccc4c(c3)OCCO4)CC2)c1 | 0.767 | 0.995 | 0.742 | 0.647 |
| CC[C@H](C)n1cc(C)c2c(C(=O)NCc3c(C)cc(C)[nH]c3=O)cc(-c3ccc(N4CCNCC4)nc3)cc21 | 0.835 | 0.889 | 0.338 | 0.358 |
| Cc1cccc(-c2[nH]c(C(C)(C)C)nc2-c2ccc3nccnc3c2)n1 | 1.02 | 1.21 | 0.902 | 1.08 |
| CC[C@@]1(O)C(=O)OCc2c1cc1n(c2=O)Cc2cc3cc(O)ccc3nc2-1 [(S)-10-Hydroxycamptothecin] | 0.0946 | 0.101 | 0.0697 | 0.073 |
| CN1CCN(CCCNc2ncc(Cl)c(-c3cc4c(C(=O)NC5CC5)cccc4s3)n2)CC1 | 0.789 | 1.05 | 0.73 | 0.719 |
| NC(=O)c1noc([C@H](CCCC2CCCCC2)CC(=O)NO)n1 | 0.928 | 1.03 | 0.623 | 0.827 |
| CCn1c(=O)c(-c2ccc(-c3cncs3)cc2Cl)cc2cnc(Nc3ccc(N4CCN(C)CC4)cc3)nc21 | 0.596 | 0.857 | 0.521 | 0.793 |
| O=C1NC(=O)/C(=C/c2ccc(-c3ccc(F)cc3O)o2)S1 | 0.764 | 1.12 | 0.64 | 0.89 |
| CC(C)CCN1c2nc(Nc3cc(F)c(O)c(F)c3)ncc2N(C)C(=O)C1C (stereo unspecified) | 1.29 | 1.04 | 0.556 | 0.539 |
| OC[C@@H](O)[C@@H](O)CO [Erythritol] | 0.77 | 0.989 | 0.705 | 0.968 |
| Cc1cnc(Nc2ccc(N3CCN(C)CC3)cc2)nc1Nc1cccc(S(=O)(=O)NC(C)(C)C)c1 | 0.363 | 0.472 | 0.0682 | 0.0804 |
| COC(=O)c1ccc2c(c1)NC(=O)/C2=C(\Nc1ccc(N(C)C(=O)CN2CCN(C)CC2)cc1)c1ccccc1 [Nintedanib (BIBF 1120)] | 0.903 | 0.889 | 0.152 | 0.147 |
